# Some of the results follow.
# T1: UNK ZnF1-3 (human, UniProt Q9C0B0 31-174)
# T1 sequence: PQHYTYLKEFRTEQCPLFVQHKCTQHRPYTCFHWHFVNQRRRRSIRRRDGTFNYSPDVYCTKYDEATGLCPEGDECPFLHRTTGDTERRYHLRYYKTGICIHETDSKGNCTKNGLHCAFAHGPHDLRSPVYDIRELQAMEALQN
# B1: 89559380_89559500_3313_3pUTR_ENSMUSG00000027950_ENSMUST00000029562|mouse|control|control (ssRNA)
# RNA: GGGAGUUCUACAGUCCGACGAUCUGCAGGUCUCCACAGAGGCAGGGGGCCUGUGGGCCAUCUGCCUAGGCAAAGGCGGCUGCCAGGUUACUGGAGCUUAGUCCCUGAUUCGAGUCCCCAACACCUUUCAUCACUGCCACUCCCCAACAGAGGAUUGAGCAUCA
# B2: chr1:89340274:89340275:+_ENSMUSG00000048000_ENSMUST00000174671|mus_mus|FALSE|FALSE (ssRNA)
# RNA: GGGAGUUCUACAGUCCGACGAUCUUGGCACGGCGUUCAAGGAACUGCUUGGCAAACUCCUUGGCCUCGGAAGUAUCUCCUAAAUAGGCCCUGGUAUAGUCAUGGACUUCAUAAGGAGACUCCACUUCUUUCAAGAAAGAAACACAACAGAGGAUUGAGCAUCA
# B3: chr14:94545736:94545737:-_ENSG00000089737_ENST00000330836|hu_hu|FALSE|FALSE (ssRNA)
# RNA: GGGAGUUCUACAGUCCGACGAUCCUCCAGCUCAGGAUCUUUCACUUCAAAUUCUUUCUGGGUACUGGUUCCUUCAGUUGCUACAUUUUUACUUUUCUUCAACUUGAUCUUUUUCUUUGGUGAGCUAGACUUUCCCUCCUCCUCCAACAGAGGAUUGAGCAUCA
# B4: chr11:46405157:46405158:+_ENSG00000110492_ENST00000395566|hu_hu|hu_hu_hu_mus_False|18_78 (ssRNA)
# RNA: GGGAGUUCUACAGUCCGACGAUCCCCUCCCCACUUUGGGCACUUGGUGUGGGCGUGAAGGCAGGGCCGUGAUUGACAGAGCUGACAGGAAGACAAAAGGCACUGGUGGGUUAUAUCUCGGGCCUGGGGGAGAGGAGGGCUCCGCAACAGAGGAUUGAGCAUCA
# B5: chrX:71549400:71549401:+_ENSMUSG00000019087_ENSMUST00000019231|mus_hu|mus_mus_mus_hu_False|58_98 (ssRNA)
# RNA: GGGAGUUCUACAGUCCGACGAUCGCAGUAGGAAGAGCAAACCUUUCCAGUCCAGUGCGCUGCAGGGUGGGAAAGCACAACCUAGACCACCGUCCCACCCUCAACCCCCCCACUGGCACAGGGUCACACAAUCUGGGUCAAAGACAACAGAGGAUUGAGCAUCA
# B6: chr7:44244176:44244177:+_ENSG00000106636_ENST00000223369|hu_mus|hu_hu_hu_mus_False|1_98 (ssRNA)
# RNA: GGGAGUUCUACAGUCCGACGAUCACUGUCGCUCCGGACGUAGACGUGGCAAAGAUACUCUUGUUCUUUGACAGAAGCUCUGCUGCCUUUCCCCGAGCGUUCCACAAUCAGUUGACUUGUAAAGGUCAUGAAUUCCUGAACGCUCAACAGAGGAUUGAGCAUCA
# B7: 163926216_163943708_1166_3pUTR_ENSMUSG00000018209_ENSMUST00000018353|mouse|control|control (ssRNA)
# RNA: GGGAGUUCUACAGUCCGACGAUCCUUCUUUUCAUGGUUCCUUCCUCUUCCUCGUCCUCCGUGUUGAUCACCAUGGUGCCCAGCUGGGACGGCAACGUGUCACCGUGCUCAAUCAUAGUAUUGGCUCCUCCGCUCAUCGUGCUGCAACAGAGGAUUGAGCAUCA
# B8: chr1:163117127:163117128:-_ENSG00000143248_ENST00000313961|hu_mus|hu_hu_hu_mus_False|1_98 (ssRNA)
# RNA: GGGAGUUCUACAGUCCGACGAUCUGCUACAAAGGAUGGAGGAAAUAUCACAGGGCAACUUUUGGAAGCCUGACCAGAUGACUACUUGAUUAGCUCCUUAUAAAAUUCAGAGCGCACAAAGCGGGGCAGAGAAUCCUUUUCCAUCAACAGAGGAUUGAGCAUCA
# B9: chr2:155494191:155494192:-_ENSMUSG00000038324_ENSMUST00000041059|mus_hu|FALSE|FALSE (ssRNA)
# RNA: GGGAGUUCUACAGUCCGACGAUCUUCAUCACUUAUUUUCAGUUUCUGUCCCCGGAUAGAGAUCGUAGGCCUCAUAAGAAUUUCUACAAGAAGAUCAACACCUCCAAACAAGUCAAAAAUGUAAGUAUUUGGAUAAGUGGUUUCCAACAGAGGAUUGAGCAUCA
# B10: 183121975_183127770_906_CDS_ENSMUSG00000038733_ENSMUST00000162963|mouse|control|control (ssRNA)
# RNA: GGGAGUUCUACAGUCCGACGAUCCACUUCAUUACAAUGCUCUGUAAGUAUCUGUUGAGUGUAACAGGGAAACUGCCUCCUACUACAAACAUGAUCUAUAAGUAGAGACACAGAAUCUAGAUUAUUGUCAAGUUUGGUAUUGUGCAACAGAGGAUUGAGCAUCA
# B11: chr1:225611761:225611762:-_ENSG00000143815_ENST00000272163|hu_mus|hu_hu_hu_mus_True|18_98 (ssRNA)
# RNA: GGGAGUUCUACAGUCCGACGAUCCCAGGCCAUCGGCCUCUUACCACUUCACCCUCAACAAACUUCCUACUUGGCAUUUUCUAAAAUUAGUCUGGCCGCGCUCCGGCGGGAACUCCAGACGGCUCCCGACAGUCACCAGCAGCCCAACAGAGGAUUGAGCAUCA
# B12: chr8:81863377:81863378:-_ENSMUSG00000031681_ENSMUST00000066091|mus_mus|motif|central (ssRNA)
# RNA: GGGAGUUCUACAGUCCGACGAUCAGCAUUUUAGUUGAUUUUUACAACAGAAUGUCACAAUGUAAACUGAAAGGGUUCUUGCGGUCAACCAAGGCUUGUCAGUUUCUCAAUCCAAUAGUUGGUCACAGAGGUCAAGUAUUAUCGCAACAGAGGAUUGAGCAUCA
# B13: chr1:231410971:231410972:+_ENSG00000116906_ENST00000366647|hu_mus|FALSE|FALSE (ssRNA)
# RNA: GGGAGUUCUACAGUCCGACGAUCCAAAAGGUAUCUGCAAAGUAACUGAUAUGAUUCCACAAAAGGCUUAAAGAGGCUUGUGAGGAACUGUAACACAGCAGUUCCUUUGUCUGUGAGGAUGAUGUCCUUCCCAGCCAUCUGCAUCAACAGAGGAUUGAGCAUCA
# B14: chr12:3048583:3048584:+_ENSG00000078246_ENST00000448120|hu_hu|motif|central (ssRNA)
# RNA: GGGAGUUCUACAGUCCGACGAUCGGGAGAAGGGCUCCCUGCCUGACUGUUCUCUCAUUCACACGCCAGCUUACUGUCAAAGCGGGAAAGACCGAUGCCAAAGGCCUGUACUGCACAAAGUGGGUAGUUGUAAUCCAGUGUGAACAACAGAGGAUUGAGCAUCA
# B15: 69237116_69237236_5343_3pUTR_ENSG00000135679_ENST00000462284|human|control|control (ssRNA)
# RNA: GGGAGUUCUACAGUCCGACGAUCAUACAUAAUUGUAAAUAUGGUGUAUGUACUGUUUCACAUACAAUGGGUAUUGAUCAAAUCAGUGUAAUUAGCACACCCAUCAGCUCAAAUAUCAUUUAUUUGUAGCAAGAACAUUCAAUACAACAGAGGAUUGAGCAUCA
# B16: 37496388_37496508_563_CDS_ENSMUSG00000026915_ENSMUST00000072186|mouse|control|control (ssRNA)
# RNA: GGGAGUUCUACAGUCCGACGAUCGUUAUCUUUAACUGUAUUUAACAGGGUUUCCGUGGGUUUGUCUUUGCACAUUAAGACUAGCUCCAGGUCCAUAUCAUCUUUAAUCAGCAAGCCUUUUGCAACCAAGCCAAUCCUCAUUACCAACAGAGGAUUGAGCAUCA
# B17: chr9:14812383:14812384:-_ENSMUSG00000031934_ENSMUST00000164273|mus_mus|mus_mus_mus_hu_True|38_68 (ssRNA)
# RNA: GGGAGUUCUACAGUCCGACGAUCAUAGCCCAGGUAGAUACACGCUAACAGUAUAAUGAUGAGUGUCACCAGCCGGCAGCUAAUGUACUUGAUGAUUAAAUGACUAGAAUUUUUCUUUGUCUUCAAGUACUGCUCCACAAUUGGCAACAGAGGAUUGAGCAUCA
# B18: chr7:139256351:139256352:-_ENSG00000064393_ENST00000406875|hu_hu|motif|central (ssRNA)
# RNA: GGGAGUUCUACAGUCCGACGAUCUCUUUCGAGAUCCACGGACUCUCUCCUAGCUCCUGCUGGCUUCCCUGGCAUCCUUCCGCGGGCAAACAGCCCAGGAAAGACAACGGGCAUUAACAUUUUAAAAAGAAAAAGAAAAAGAAACAACAGAGGAUUGAGCAUCA
# B19: chr7:31307748:31307749:-_ENSMUSG00000036882_ENSMUST00000044338|mus_mus|FALSE|FALSE (ssRNA)
# RNA: GGGAGUUCUACAGUCCGACGAUCUCUGUACAAGGAUCCUCGGACCUCCCCUCCCCUCCCAUAGGAUGGUGGAGCUGGCCUAUAGAGCAGAAAAGGUUCGGGGGAACCCCAAGGUCCAGGCACCCGAUGGGGAGUAUGUGGACCCAACAGAGGAUUGAGCAUCA
# B20: chr6:106732989:106732990:-_ENSMUSG00000005362_ENSMUST00000049675|mus_hu|FALSE|FALSE (ssRNA)
# RNA: GGGAGUUCUACAGUCCGACGAUCACUGCCAAUUUUAAGGAGCUGAAUUCUCAAUACAUCAUCAAUAGGAAGACAAGCAGCUACUCUGUAAGAAAAAUCUAUUGGAUUUGAAGGAAGAGAAUCAUCUUUUAGAUUUUCAUCCCACAACAGAGGAUUGAGCAUCA
# B21: chr18:35748043:35748044:+_ENSMUSG00000037236_ENSMUST00000166793|perfect_dup|motif|central (ssRNA)
# RNA: GGGAGUUCUACAGUCCGACGAUCUGUAUAAAAGAGUGAACACAGCUUACAGUAAAACCCUGUUUUAGGUAUCACAUAGUCGGUACCAACAGGAACAUUAGGCUGAUAUGGUCCGAUUCUAUACUCAUCGGGAAUUGUAUAAUCCAACAGAGGAUUGAGCAUCA
# B22: chr1:135034296:135034297:+_ENSMUSG00000046062_ENSMUST00000052529|mus_mus|FALSE|FALSE (ssRNA)
# RNA: GGGAGUUCUACAGUCCGACGAUCCAAUCCCCUACCUCAAAAUAUAACAGACAUAAAAACAUACAAAAACAAAACCCAUAAAGCCCAUUAAUUUUAGAACAGAAAAAGCACACAAGAACUCAAUGCAUGCAUAAUUUGAGUUAGCAACAGAGGAUUGAGCAUCA
# Target: T1, UNK ZnF1-3
# Experiment: nsRBNS (natural sequence RNA bind-n-seq); RBNS binding buffer (assumed for nsRBNS): 25 mM Tris pH 7.5, 150 mM KCl, 3 mM MgCl2, 0.01% Triton X-100, 500 ug/ml BSA, 20 U/ml SUPERase-In, 4 C; UNK is unkempt and MSI1 is Musashi-1; names of the RNAs are library labels; protein concentration not given here; high values mean tight binding
row,Binder,binding signal [enrichment R]
1,B1,1.15
2,B2,0.673
3,B3,0.424
4,B4,2.65
5,B5,0.815
6,B6,0.508
7,B7,0.503
8,B8,1.67
9,B9,0.956
10,B10,0.832
11,B11,1.32
12,B12,1.83
13,B13,0.626
14,B14,1.5
15,B15,0.79
16,B16,0.663
17,B17,1.12
18,B18,2.1
19,B19,0.935
20,B20,1.12
21,B21,0.49
22,B22,2.92

# Reference: article PMC12136788
